No constants are given. Whether binding was seen depends on the method and setting. Binding seen in cells or lysates may run through a third protein. Some binding calls cover weakened binding; strength is not graded here. Where a sequence is shown, tags or fusion partners need not be part of it.
Tests used:
Experiment in all cases: co-IP; whole-cell extracts of ESCs (700 μg lysate; lysis buffer 50 mM Tris-HCl pH 7.6, 250 mM NaCl, 0.05% NP40) incubated with 1 μg anti-cohesin antibody (SMC3, RAD21, REC8, STAG1, STAG2, STAG3) overnight, protein A/G agarose 3 h at 4 °C, western blot
[1] = molecular target: T1, STAG3 (mouse (endogenous in J1 ESCs)) (UniProt O70576)
T1 sequence: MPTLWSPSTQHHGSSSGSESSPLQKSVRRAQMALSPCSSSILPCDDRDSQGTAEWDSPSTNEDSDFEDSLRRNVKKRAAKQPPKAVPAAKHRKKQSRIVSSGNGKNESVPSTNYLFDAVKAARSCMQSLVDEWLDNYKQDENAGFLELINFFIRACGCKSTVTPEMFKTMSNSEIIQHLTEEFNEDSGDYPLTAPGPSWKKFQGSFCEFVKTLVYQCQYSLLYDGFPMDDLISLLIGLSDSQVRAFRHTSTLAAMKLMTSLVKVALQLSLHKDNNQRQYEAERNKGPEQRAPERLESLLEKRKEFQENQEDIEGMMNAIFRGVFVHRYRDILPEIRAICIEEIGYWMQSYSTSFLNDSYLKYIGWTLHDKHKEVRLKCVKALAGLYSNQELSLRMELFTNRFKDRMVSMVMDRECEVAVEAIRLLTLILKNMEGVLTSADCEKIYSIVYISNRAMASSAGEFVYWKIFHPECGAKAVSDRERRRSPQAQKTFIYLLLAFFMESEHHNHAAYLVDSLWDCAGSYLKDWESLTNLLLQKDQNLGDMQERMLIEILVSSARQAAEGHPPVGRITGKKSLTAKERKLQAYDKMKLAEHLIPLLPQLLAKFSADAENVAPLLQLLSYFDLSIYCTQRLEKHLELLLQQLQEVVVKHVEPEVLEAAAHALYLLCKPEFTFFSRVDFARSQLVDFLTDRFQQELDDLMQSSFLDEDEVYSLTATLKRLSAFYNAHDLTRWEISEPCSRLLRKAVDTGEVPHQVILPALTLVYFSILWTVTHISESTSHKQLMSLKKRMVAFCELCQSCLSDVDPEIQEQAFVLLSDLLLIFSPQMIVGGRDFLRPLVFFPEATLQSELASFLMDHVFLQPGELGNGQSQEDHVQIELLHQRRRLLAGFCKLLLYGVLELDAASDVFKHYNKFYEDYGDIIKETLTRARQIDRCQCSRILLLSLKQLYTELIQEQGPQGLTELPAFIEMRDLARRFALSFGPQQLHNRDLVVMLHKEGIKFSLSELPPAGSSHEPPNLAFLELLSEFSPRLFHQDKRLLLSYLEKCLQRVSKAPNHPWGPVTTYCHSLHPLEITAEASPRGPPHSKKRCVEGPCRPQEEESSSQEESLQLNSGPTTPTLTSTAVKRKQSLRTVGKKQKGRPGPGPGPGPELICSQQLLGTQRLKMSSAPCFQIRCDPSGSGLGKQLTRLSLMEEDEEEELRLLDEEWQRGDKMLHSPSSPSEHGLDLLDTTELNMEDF

[2] = molecular target: T2, STAG1 (mouse (endogenous in J1 ESCs)) (UniProt Q9D3E6)
T2 sequence: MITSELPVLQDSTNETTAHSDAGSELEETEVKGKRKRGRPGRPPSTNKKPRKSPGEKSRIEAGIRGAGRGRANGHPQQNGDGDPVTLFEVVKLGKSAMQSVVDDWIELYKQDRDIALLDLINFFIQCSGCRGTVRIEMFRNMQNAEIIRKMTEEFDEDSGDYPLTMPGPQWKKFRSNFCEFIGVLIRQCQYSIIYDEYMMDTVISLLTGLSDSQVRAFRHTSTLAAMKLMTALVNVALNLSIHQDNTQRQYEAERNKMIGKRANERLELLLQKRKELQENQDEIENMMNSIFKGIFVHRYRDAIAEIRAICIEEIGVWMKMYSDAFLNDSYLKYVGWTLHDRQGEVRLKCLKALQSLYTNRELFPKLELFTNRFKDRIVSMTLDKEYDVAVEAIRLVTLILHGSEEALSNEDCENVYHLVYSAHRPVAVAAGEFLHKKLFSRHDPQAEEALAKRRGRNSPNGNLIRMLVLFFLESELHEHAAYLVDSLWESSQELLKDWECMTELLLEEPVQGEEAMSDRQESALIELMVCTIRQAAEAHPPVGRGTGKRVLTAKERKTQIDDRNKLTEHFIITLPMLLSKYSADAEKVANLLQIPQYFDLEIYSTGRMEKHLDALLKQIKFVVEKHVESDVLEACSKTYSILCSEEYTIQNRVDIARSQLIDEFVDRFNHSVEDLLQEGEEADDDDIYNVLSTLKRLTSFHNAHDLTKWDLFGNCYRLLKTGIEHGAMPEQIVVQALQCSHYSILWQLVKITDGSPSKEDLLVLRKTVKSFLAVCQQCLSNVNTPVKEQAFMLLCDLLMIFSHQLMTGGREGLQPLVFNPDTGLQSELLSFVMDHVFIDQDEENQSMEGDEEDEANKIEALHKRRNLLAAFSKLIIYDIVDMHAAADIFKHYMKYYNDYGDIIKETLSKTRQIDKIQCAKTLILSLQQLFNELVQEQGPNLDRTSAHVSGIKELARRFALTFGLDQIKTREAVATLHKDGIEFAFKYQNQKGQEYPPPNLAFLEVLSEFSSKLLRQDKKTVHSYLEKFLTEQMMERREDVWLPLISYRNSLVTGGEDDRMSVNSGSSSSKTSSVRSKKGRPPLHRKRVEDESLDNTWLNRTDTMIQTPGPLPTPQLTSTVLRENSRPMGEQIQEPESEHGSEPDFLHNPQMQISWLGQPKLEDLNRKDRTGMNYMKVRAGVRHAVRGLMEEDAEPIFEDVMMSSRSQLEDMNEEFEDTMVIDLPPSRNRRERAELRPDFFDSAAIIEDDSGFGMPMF

[3] = molecular target: T3, STAG2 (mouse (endogenous in J1 ESCs)) (UniProt O35638)
T3 sequence: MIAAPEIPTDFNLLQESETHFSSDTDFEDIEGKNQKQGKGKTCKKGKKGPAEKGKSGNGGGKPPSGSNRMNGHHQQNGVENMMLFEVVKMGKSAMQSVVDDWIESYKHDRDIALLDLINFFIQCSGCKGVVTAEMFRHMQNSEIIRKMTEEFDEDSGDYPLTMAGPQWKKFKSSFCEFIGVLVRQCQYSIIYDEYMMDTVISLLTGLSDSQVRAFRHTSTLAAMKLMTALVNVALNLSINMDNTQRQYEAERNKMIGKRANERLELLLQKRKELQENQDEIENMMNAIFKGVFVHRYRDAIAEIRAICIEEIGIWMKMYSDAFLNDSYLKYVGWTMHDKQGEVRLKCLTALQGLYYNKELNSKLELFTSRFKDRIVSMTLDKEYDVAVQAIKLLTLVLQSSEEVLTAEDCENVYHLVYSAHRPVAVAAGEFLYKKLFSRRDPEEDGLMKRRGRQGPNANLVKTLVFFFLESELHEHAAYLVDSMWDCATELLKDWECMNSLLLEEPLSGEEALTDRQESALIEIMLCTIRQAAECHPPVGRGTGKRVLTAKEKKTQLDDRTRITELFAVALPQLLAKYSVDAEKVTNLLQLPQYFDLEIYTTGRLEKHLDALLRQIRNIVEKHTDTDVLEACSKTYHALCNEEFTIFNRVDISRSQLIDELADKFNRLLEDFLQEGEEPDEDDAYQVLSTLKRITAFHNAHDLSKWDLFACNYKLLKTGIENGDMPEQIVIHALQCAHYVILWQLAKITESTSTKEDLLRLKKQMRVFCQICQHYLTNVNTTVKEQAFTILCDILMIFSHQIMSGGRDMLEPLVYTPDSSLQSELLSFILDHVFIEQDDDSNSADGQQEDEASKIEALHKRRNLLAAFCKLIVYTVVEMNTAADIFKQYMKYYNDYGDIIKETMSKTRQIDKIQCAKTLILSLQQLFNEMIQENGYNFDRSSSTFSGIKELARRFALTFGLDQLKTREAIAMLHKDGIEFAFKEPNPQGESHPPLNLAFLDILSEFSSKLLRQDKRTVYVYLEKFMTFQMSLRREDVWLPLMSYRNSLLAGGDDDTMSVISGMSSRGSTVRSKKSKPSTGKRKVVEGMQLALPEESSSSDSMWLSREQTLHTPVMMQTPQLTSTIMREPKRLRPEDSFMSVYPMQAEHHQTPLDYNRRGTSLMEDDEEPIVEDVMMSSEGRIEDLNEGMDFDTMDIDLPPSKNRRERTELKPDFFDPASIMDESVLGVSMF

binding [1]: binds
binding [2]: no binding
binding [3]: no binding
B1: REC8 (protein, UniProt Q8C5S7 1-591)
chain: MFYYPNVLQRHTGCFATIWLAATRGSRLVKREYLNVNVVKTCEEILNYVLVRVQPPVAGLPRPRFSLYLSAQLQIGVIRVYFQQCQYLVEDIQHILEHLHRAQLRIRIDMEEADLPSLLLPNCLAMMETLEDAPEPFFGKMSVDPRLPSPFDIPQIRHLLEAATPEKTRKETLPEATPDPRKPDRTLATVQSPEVITLQEAEPIRMLQIEGEQDLPEISRGDLELLIAEKDDAILLEERQRGRLLRQRRASLPLDESREEPRALEGAGLVSALSPPAPAQVEGIQEALPGQVFPPEVQKMTGWEPGALLTEVTPPQELRLPAPPSTEKRLPSLQRPLPRRHRRRQLLFWDKETQISREKFEEQLQTGAHCWEYPVAQPPKRMLTSPAELFRTPTLSGWLPPELLGLWTHCAQVPQRMLRQRPQLETEETVEEERAADEEERRKTEALSEIEVLREAQEPSGPLMLSSELSLEAAEDEKSRTSLIPPEWWAWSEEGQPEPPALPMLPELPEVPMEMPPRPELSSEAVLRAVALKLQANKELDFSSLVPPLSPRKLASRVFYLLLVLSTQKILLVEQQKPYGPLLIRPGPKFP
